In PubChem BioAssay AID1346428 (National Center for Advancing Translational Sciences (NCATS), 2018):
Out of some 48,000 compounds screened, about 1,200 (2.5%) were called active. Inconclusive results (about 2%) are left out.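 How the source made its calls: active means activation of at least 60% and not above a set upper limit (about 1 call in 100 departs from these limits); inconclusive means activation of 40% to 60%, or above that upper limit; inactive means activation under 40%.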 Some of the results follow.

biological target: Probable G-protein coupled receptor 32 (Homo sapiens) (UniProt O75388); assay: qHTS for Agonists of Human Resolvin D1 Receptor DRV1; details: CHO-K1 GPR32 beta-arrestin PathHunter luminescence, 90 min; at 76.9 µM; stronger effect = higher value; zero percent set by DMSO-only wells; further: 0% is about no effect
Summary of the method: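 Agonism was scored by beta-Gal fragment complementation (chemiluminescent read, 1 h detection at ambient temperature) reporting beta-arrestin binding to GPR32 in engineered CHO-K1 cells. Compound treatment lasted 90 min at 37 C, normalized to a DMSO basal control.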

UniProt O75388, sequence (O75388 whole entry, looked up, the tested form may be a part): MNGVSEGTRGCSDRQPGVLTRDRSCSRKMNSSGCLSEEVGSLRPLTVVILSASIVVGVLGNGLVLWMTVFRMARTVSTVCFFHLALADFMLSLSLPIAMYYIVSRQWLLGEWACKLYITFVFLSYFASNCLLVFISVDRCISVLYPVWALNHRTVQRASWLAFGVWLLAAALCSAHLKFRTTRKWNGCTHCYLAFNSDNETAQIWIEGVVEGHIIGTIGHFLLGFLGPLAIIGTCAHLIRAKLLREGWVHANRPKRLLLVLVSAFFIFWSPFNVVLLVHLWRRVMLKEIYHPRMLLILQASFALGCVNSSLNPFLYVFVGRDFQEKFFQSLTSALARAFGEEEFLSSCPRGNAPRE

| Compound | activation |
| --- | --- |
| Cc1cc(O)c(C(c2cccc(F)c2)N2CCN(c3ccccc3)CC2)c(=O)n1Cc1ccco1 (stereo unspecified) | inactive: -21.7% |
| CN(c1ccccc1)S(=O)(=O)c1ccc(NC(=O)c2nc(S(C)(=O)=O)ncc2Cl)cc1 | inactive: -25.9% |
| COc1ccc(-c2c(C#N)c(SCC(=O)Nc3ccccc3C)nc(C)c2C(=O)Nc2ccc(Cl)cc2)cc1 | inactive: -18.9% |
| C[C@H]1O[C@H](O[C@H]2[C@H](O)[C@@H](O)[C@@H](O[C@H]3[C@H](O)[C@@H](O)[C@H](O)O[C@@H]3CO)O[C@@H]2CO)[C@H](O)[C@@H](O)[C@@H]1N[C@H]1C=C(CO)[C@@H](O)[C@H](O)[C@H]1O | inactive: -2.69% |
| Cc1cc(C)n(-c2nnc(Nc3ccc(C)c(C)c3)c3ccccc23)n1 | inactive: -30.4% |
| Cc1cc2c(cc1S(N)(=O)=O)S(=O)(=O)CCC2 | inactive: -4.41% |
| O=C1Nc2ccccc2Oc2cc(Oc3ccccc3)ccc21 | inactive: -14% |
| COc1ccc(NC(=O)Cn2c(SCc3ccc(C)cc3)nc3cccnc32)cc1OC | inactive: 49.3% |
| Cc1ccc(C)c(CN2C(=O)c3ccccc3S(=O)(=O)c3ccc(C(=O)OCC4CCCO4)cc32)c1 (stereo unspecified) | inactive: -9.57% |
| COc1ccc(NC(=O)c2sc3nc4c(cc3c2N)CN(Cc2ccccc2)CC4)c(OC)c1 | inactive: -26.9% |
| Cc1ccc(S(=O)(=O)N2CCC(C(=O)NCc3ccccc3Cl)CC2)cc1 | inactive: -17.6% |
| Cc1cccc(NC(=O)c2cc(S(=O)(=O)NCCc3ccccc3)ccc2F)c1C | inactive: -13% |
| COc1ccccc1C1c2c(-c3ccc(Cl)cc3)n[nH]c2C(=O)N1c1ccc(C)cc1 (stereo unspecified) | inactive: -20.7% |
| CCN1CCN(Cc2c(O)ccc3c(C)c(-c4ccc(OC)cc4)c(=O)oc23)CC1 | inactive: -12.3% |
| Cc1ccccc1C(=O)Nc1cccc(OCc2cc(=O)n3c(C)csc3n2)c1 | inactive: -0.198% |
| CCN(CC)CCOC(=O)c1ccc(NC(=O)c2cc3c(=O)n(CC)c4ccccc4c3s2)cc1 | inactive: -1.29% |
| Cc1cc(SCC(=O)NCc2ccc(Cl)cc2)nc(=O)[nH]1 | inactive: 3.6% |
| CCCCCn1c(=O)[nH]c2cc(C(=O)Nc3ccc(F)c(F)c3)ccc2c1=O | inactive: 9.81% |
| N#Cc1ccc(-c2cccs2)nc1SCC(=O)Nc1cccc(C(F)(F)F)c1 | active: 82.3% |
| Cc1ccccc1S(=O)(=O)Cc1ccc(C(=O)N2CCN(c3cccc(Cl)c3)CC2)o1 | inactive: 22.4% |
| COc1ccc(NC(=O)C2=CC(c3ccco3)=NS(=O)(=O)N2C)cc1 | inactive: -24% |
